Some of the results follow. Bounds are passed on as bounds.

B1: PhoQ; a variant is named by its letters at X, in order, P23837 (parent)
chain: MKKLLRLFFPLSLRVRFLLATAAVVLVLSLAYGMVALIGYSVSFDKTTFRLLRGESNLFYTLAKWENNKLHVELPENIDKQSPTMTLIYDENGQLLWAQRDVPWLMKMIQPDWLKSNGFHEIEADVNDTSLLLSGDHSIQQQLQEVREDDDDAEMTHSVAVNVYPATSRMPKLTIVVVDTIPVELKSSYMVWSWFIYVLSANLLLVIPLLWVAAWWSLRPIEALAKEVRELEEHNRELLNPATTRELTSLVRNLNRLLKSERERYDKYRTTLTDLTHSLKTPLXXLQXXLRSLRSEKMSVSDAEPVMLEQISRISQQIGYYLHRASMRGGTLLSRELHPVAPLLDNLTSALNKVYQRKGVNISLDISPEISFVGEQNDFVEVMGNVLDNACKYCLEFVEISARQTDEHLYIVVEDDGPGIPLSKREVIFDRGQRVDTLRPGQGVGLAVAREITEQYEGKIVAGESMLGGARMEVIFGRQHSAPKDE

This assay covers variants of B1. Description: enrichment ratio after two sorts for PhoP signalling (ratio (wild type AVST 3.29)); higher = more functional. The following applies: with PhoP (E. coli).
For KYIV, the enrichment ratio is at most 0.25. Turning to CASP, the enrichment ratio was at most 0.25. On to PKYM, for which the enrichment ratio is at most 0.25. Regarding CLFY, the enrichment ratio was at most 0.25.

For the variant HFQP, the enrichment ratio was at most 0.25. SSSV: the enrichment ratio was 10.9. In the case of RLED, the enrichment ratio is at most 0.25. As to TQAN, the enrichment ratio was 7.3. For the variant PCFD, the enrichment ratio is at most 0.25. Consider EDSL, for which the enrichment ratio was at most 0.25. As for DLVK, the enrichment ratio was at most 0.25. In the case of HLGK, the enrichment ratio was at most 0.25. With RGNH, the enrichment ratio was at most 0.25. Consider VYMG, for which the enrichment ratio was at most 0.25. Take PNAC: the enrichment ratio is at most 0.25. Next, PFVE: at most 0.25; VVNP: at most 0.25; LSYF: 0.698.

Consider PHGP, for which the enrichment ratio is at most 0.25. Consider TEAD, for which the enrichment ratio was determined as 16.8. Consider VHSE, for which the enrichment ratio was at most 0.25. With HMCI, the enrichment ratio was at most 0.25. For LTSR the value was at most 0.25; for WIYN, at most 0.25. For LKVM, the enrichment ratio was at most 0.25. As to HKHI, the enrichment ratio was at most 0.25. As for FCVP, the enrichment ratio was at most 0.25. Turning to LNVA, the enrichment ratio is at most 0.25. As to LHLY, the enrichment ratio is at most 0.25. WKYM: the enrichment ratio was at most 0.25. Turning to NWCN, the enrichment ratio is at most 0.25. In the case of MKQC, the enrichment ratio is at most 0.25. Take HQNH: the enrichment ratio was at most 0.25.

Consider LHSV, for which the enrichment ratio is at most 0.25. Consider KASE, for which the enrichment ratio was at most 0.25.

For the variant IMSV, the enrichment ratio was at most 0.25. For SNDM the value was at most 0.25.

On to MNNY, for which the enrichment ratio stood at 15.3.

APPG: the enrichment ratio was at most 0.25.

Consider LLYM, for which the enrichment ratio was at most 0.25. Next, ALPI: at most 0.25.

For VFDY, the enrichment ratio is at most 0.25. For VNEM the value was at most 0.25; for PMFS, at most 0.25; for NTLP, at most 0.25. In the case of WWPP, the enrichment ratio was at most 0.25.

On to EDAD, for which the enrichment ratio is at most 0.25. For NHSR, the enrichment ratio is at most 0.25. Consider LPLL, for which the enrichment ratio is at most 0.25. On to DWWF, for which the enrichment ratio is at most 0.25. For PPRA the value was at most 0.25; for HPPT, at most 0.25. With RNDP, the enrichment ratio is at most 0.25.

As for PGDN, the enrichment ratio was at most 0.25.

With LYEQ, the enrichment ratio is at most 0.25. For the variant TNNL, the enrichment ratio was 0.757. With GLMC, the enrichment ratio was at most 0.25. Regarding KMNA, the enrichment ratio was at most 0.25. In the case of HAKN, the enrichment ratio is at most 0.25. For IAMS the value was at most 0.25; for ILIK, at most 0.25; for HTLG, at most 0.25. Regarding LLFD, the enrichment ratio was at most 0.25. For KTFG the value was at most 0.25; for TPWM, at most 0.25. Turning to PDMN, the enrichment ratio was at most 0.25. For NNIY the value was at most 0.25.

Take GDED: the enrichment ratio was at most 0.25. On to TRQN, for which the enrichment ratio was at most 0.25. Turning to SDLV, the enrichment ratio turned out to be 7.36.

Turning to IYLC, the enrichment ratio was at most 0.25. For the variant VPEF, the enrichment ratio is at most 0.25. Consider DFFD, for which the enrichment ratio is at most 0.25. Consider IRVQ, for which the enrichment ratio is at most 0.25. On to HQMK, for which the enrichment ratio is at most 0.25.

Turning to AWPS, the enrichment ratio was at most 0.25. Consider PKQY, for which the enrichment ratio is at most 0.25.

GPDF: the enrichment ratio was at most 0.25. Consider PEER, for which the enrichment ratio was at most 0.25.

Consider MVRA, for which the enrichment ratio was at most 0.25. LMMS: the enrichment ratio is at most 0.25. Regarding HCRE, the enrichment ratio is at most 0.25.

As for GDWG, the enrichment ratio is at most 0.25. Regarding HFRI, the enrichment ratio is at most 0.25. DTYL: the enrichment ratio is at most 0.25.

EFKR: the enrichment ratio was at most 0.25. For KDGK, the enrichment ratio is at most 0.25. Take TDTI: the enrichment ratio came to 14.6. Next, AKAC: 19.7. As for SGMY, the enrichment ratio came out at 11.1. As to YWIT, the enrichment ratio is at most 0.25.

As to YPSY, the enrichment ratio was at most 0.25. In the case of MRKE, the enrichment ratio was at most 0.25.

VWHY: the enrichment ratio is at most 0.25.

Consider GMTT, for which the enrichment ratio was at most 0.25. For DKVL the value was at most 0.25; for PWIF, at most 0.25.

Consider EHIP, for which the enrichment ratio was at most 0.25. In the case of FITI, the enrichment ratio is at most 0.25.

As to SPYT, the enrichment ratio is at most 0.25. With QTFI, the enrichment ratio is at most 0.25.

With EEPA, the enrichment ratio was at most 0.25. Next, ADLW: at most 0.25; LQGS: at most 0.25. For DRQQ, the enrichment ratio was at most 0.25. For the variant QGTG, the enrichment ratio is at most 0.25. In the case of GIYK, the enrichment ratio is at most 0.25.

Regarding LCQM, the enrichment ratio is at most 0.25. For KASS the value was 1.62; for VYLK, at most 0.25; for GIWF, at most 0.25.

As for SNKV, the enrichment ratio is at most 0.25. Turning to TQKS, the enrichment ratio is at most 0.25. In the case of VDFI, the enrichment ratio was at most 0.25. As to RQAD, the enrichment ratio was at most 0.25.

With PVDD, the enrichment ratio was at most 0.25. For FEWS the value was at most 0.25; for VQSE, at most 0.25; for TGQH, 4.83. Take DAKT: the enrichment ratio is at most 0.25. For QSTL the value was at most 0.25; for MAWF, 3.66; for GSEA, at most 0.25. On to QKKN, for which the enrichment ratio was at most 0.25.

Regarding RVSC, the enrichment ratio is at most 0.25. On to TLTL, for which the enrichment ratio came to 14.1. For RIMQ the value was at most 0.25. Regarding IVSE, the enrichment ratio was at most 0.25. As to IQEH, the enrichment ratio was at most 0.25. For WCTK the value was at most 0.25. Consider RDVG, for which the enrichment ratio was at most 0.25. For AGAL the value was 8.05; for ARWG, at most 0.25; for FGTG, at most 0.25. Turning to QMGL, the enrichment ratio stood at 2.02. For AMRL the value was at most 0.25; for ECPV, at most 0.25. Next, AICH: 15.1. Take LMWT: the enrichment ratio is at most 0.25. Regarding EGDP, the enrichment ratio is at most 0.25.

In the case of EVPS, the enrichment ratio was at most 0.25. With FLVP, the enrichment ratio was at most 0.25.

Take LFPM: the enrichment ratio was at most 0.25. For the variant LDCF, the enrichment ratio is at most 0.25.

Take FEQD: the enrichment ratio is at most 0.25. Take ANAR: the enrichment ratio is at most 0.25. On to SMGT, for which the enrichment ratio is at most 0.25.

Turning to DGMI, the enrichment ratio is at most 0.25.

Take LPGM: the enrichment ratio is at most 0.25. On to LESY, for which the enrichment ratio is at most 0.25. With ELAL, the enrichment ratio is at most 0.25. Consider IQRV, for which the enrichment ratio is at most 0.25. Turning to PVKE, the enrichment ratio is at most 0.25. With HEVP, the enrichment ratio is at most 0.25. For RWQL the value was at most 0.25; for LYVV, at most 0.25; for AEWC, at most 0.25. Next, MLPC: at most 0.25. On to FNPS, for which the enrichment ratio is at most 0.25. Regarding MKDV, the enrichment ratio is at most 0.25. Next, NFCK: at most 0.25; NGES: at most 0.25; FFGA: at most 0.25. For the variant LQKC, the enrichment ratio was at most 0.25. With DHTY, the enrichment ratio was at most 0.25. Next, PKNH: at most 0.25. Next, ESYH: at most 0.25. Consider FSHN, for which the enrichment ratio was at most 0.25.

For MLYC, the enrichment ratio is at most 0.25. For DYET, the enrichment ratio is at most 0.25. For IWPI the value was at most 0.25. Consider ACVM, for which the enrichment ratio was 12.1. For RDWE, the enrichment ratio was at most 0.25.

In the case of RDQI, the enrichment ratio is at most 0.25.

With MRCL, the enrichment ratio was at most 0.25. Consider DIEP, for which the enrichment ratio was at most 0.25. Consider WKTK, for which the enrichment ratio is at most 0.25. On to YEAK, for which the enrichment ratio amounted to 0.57.

In the case of IYFV, the enrichment ratio was at most 0.25.

On to CIHY, for which the enrichment ratio is at most 0.25.

On to YIIT, for which the enrichment ratio is at most 0.25.

Turning to AIAH, the enrichment ratio came out at 5.6. For DPVG, the enrichment ratio is at most 0.25. As to ACRC, the enrichment ratio is at most 0.25. As to NSCY, the enrichment ratio is at most 0.25. For QFVT the value was at most 0.25. NYHY: the enrichment ratio was at most 0.25. In the case of HARW, the enrichment ratio is at most 0.25. On to NFYC, for which the enrichment ratio was at most 0.25.

Regarding SRIM, the enrichment ratio is 13.7. Regarding YWIA, the enrichment ratio is at most 0.25.

Consider IQVR, for which the enrichment ratio is at most 0.25. APMN: the enrichment ratio was at most 0.25. With SYPE, the enrichment ratio was at most 0.25. On to NRAM, for which the enrichment ratio was at most 0.25.
